# Assay results as given in PubChem BioAssay AID504845 (National Center for Advancing Translational Sciences (NCATS), 2011).
# Out of some 390,000 compounds screened, about 150 (0.038%) were called active. Entries that show only a call come without a potency. This list was built around the results that the source calls inconclusive (neither active nor inactive); the mix of calls is not that of the screen. Calls follow the shape of the dose curve; as a rule, active = well fitted inhibition curve with a large enough effect; inconclusive = small, poorly fitted or top-dose-only effect; inactive = no such curve, though single readings can be large or run the other way. Potencies of inconclusive entries are doubtful fits and often do not repeat.
# Target: Regulator of G-protein signaling 4 (Homo sapiens) (UniProt P49798)
# Experiment: Inhibitors of Regulator of G Protein Signaling (RGS) 4: qHTS; also: nearly all actives have a fitted effect of over 75% in size
# Settings: Transcreener GDP fluorescence polarization, RGS4-accelerated GTP hydrolysis; series mostly up to 114 µM
# Method in brief: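 MLSMR compounds (23 nl, pin-transferred) preincubated 10 min at room temperature with a 500nM (2x) first reagent, then RGS4 at 900nM (2x) plus Transcreener GDP mix added; fluorescence polarization (620/688 nm) read before and after 90 min at 30 °C.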
# Potency is read from the fitted curve at half-maximal effect; tags tell the direction and shape of the fitted curve.
# UniProt P49798, sequence (P49798 whole entry, looked up): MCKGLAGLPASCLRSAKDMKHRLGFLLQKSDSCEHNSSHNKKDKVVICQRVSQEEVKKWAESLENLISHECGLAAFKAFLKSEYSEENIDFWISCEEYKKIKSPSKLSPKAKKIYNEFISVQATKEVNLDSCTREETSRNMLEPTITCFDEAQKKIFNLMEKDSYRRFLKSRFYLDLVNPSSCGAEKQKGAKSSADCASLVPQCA
row,Compound,Potency
1,CC(C)(C)OC(=O)N[C@@H](Cc1ccccc1)c1nnc(S(=O)(=O)Cc2cccc(F)c2)o1,"inconclusive: 20 µM [inhibitor, full curve, poor fit]"
2,O=c1c2cc(NC(=S)NCCN3CCCCCC3)ccc2nc2n1CCCCC2,inactive
3,CCN(CC)c1ccc(NC(=O)COC(=O)CCC(=O)c2ccc(F)cc2)cc1,"inconclusive: 89.1 µM [inhibitor, partial curve, poor fit]"
4,CCOc1ccc(N2CC(O)(c3ccc(F)cc3)[N+]3=C2CCCC3)cc1 (centres undefined),inactive
5,O=C(OCc1ccc([N+](=O)[O-])cc1Cl)c1cnccn1,inactive
6,Cc1ccc2nc3c(cc(C#N)c(=O)n3-c3nccs3)c(=O)n2c1,inactive
7,C/C(=N\NC(=O)c1ccc(Cl)c(Cl)c1)c1ccccn1,inactive
8,Cc1ccn2c(Nc3ccc4c(c3)OCO4)c(-c3ccccn3)nc2c1,inactive
9,O=C(CSc1nnc([C@@H]2CCCN2)o1)c1ccc(Cl)cc1,"inconclusive: 79.4 µM [inhibitor, partial curve, poor fit]"
10,O=C(O)c1ccc2c(ccc3nn(-c4ccc(/C=C/c5ccc(-n6nc7ccc8cc(C(=O)O)ccc8c7n6)cc5[S+](=O)([O-])[O-])c([S+](=O)([O-])[O-])c4)nc32)c1,"inconclusive: 31.6 µM [inhibitor, full curve, poor fit]"
11,Cc1ccc(-n2c3c(cc(C(=O)NCc4ccco4)c2=O)C(=O)CCC3)cc1,inactive
12,O=C(Nc1cccc(S(=O)(=O)NCc2ccco2)c1)c1cc(-c2ccccc2)nc2ccccc12,"inconclusive: 56.2 µM [inhibitor, partial curve, poor fit]"
13,Cc1ccc(S(=O)(=O)N2CCC(C(=O)NCc3ccccc3CN3CCCC3)CC2)cc1C,inactive
14,Cc1ccc2nc(C3CCCN(C(=S)Nc4cccc(C)c4C)C3)[nH]c2c1 (centres undefined),inactive
15,CCc1ccc2nc(SCC(=O)N3CC(=O)Nc4ccccc43)c(C#N)cc2c1,"inconclusive: 79.4 µM [inhibitor, partial curve, poor fit]"
16,O=C1/C(=C2\C(=O)N(Cc3ccc(F)cc3)c3ccccc32)SC(=S)N1CCS(=O)(=O)O,"inconclusive: 89.1 µM [inhibitor, single point]"
17,COc1ccccc1N1CCN(C(=O)/C=C/c2ccco2)CC1,inactive
18,O=C(NCCCCCCNC(=O)ON=C1CCCCC1)ON=C1CCCCC1,"inconclusive: 2.38 µM [inhibitor, partial curve, poor fit]"
19,COc1ccccc1/C=C\C=N\n1c(-c2ccc(Cl)cc2)n[nH]c1=S,"inconclusive: 112 µM [inhibitor, partial curve, poor fit]"
